Reference: the RNAGym collection of RNA variant scans (doi:10.1093/nar/gkz1192)
Read counts are not given, so values of variants with three or more changes are uncertain.

B1: CPEB3 Ribozyme (parent)
chain: UAACAGGGGGCCACAGCAGAAGCGUUCACGUCGCAGCCCCUGUCAGAUUCUGGUGAAUCUGCGAAUUCUGCUGUAUAUCUC

Variants of: B1
Test: self-cleavage, relative activity (ratio to wild type); higher = more cleavage; in vitro, sequencing
Summary of the method: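 CPEB3 self-cleaving ribozyme mutant libraries were made by rounds of error-prone PCR, barcoded, and transcribed in vitro with T7 RNA polymerase for 5 hours at 37°C. Cleavage occurred during transcription and a 15 min DNase I step before EDTA stop. RNAs were reverse transcribed with template switching and Illumina-sequenced, with DNA sequencing mapping barcodes to variants. Relative activity is the variant's cleaved/total read fraction divided by wild type's (minimum 5 reads), averaged across three batches.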

Row | Variant | self-cleavage
1 | UAACAGGGGGCCACAGCAGAAGCGUACACGUCGCAGCCCCUGUCAGGUACUGCUGAAUCUCCGAAUUCUUCUGCAUAUCUC | 0.12
2 | UAACAGGGGGCCACAGCAGAAGCGUACACGUCGCAGCCCCUGUCAGGUUCUGGUGAAUCUGCGAAUUCUGCCGUAUACCUC | 1
3 | UAACAGGGGGCCACAGCAGAAGCGUACACGUCGCAGCCCCUGUCAGAUUCUGGUGAGUCUGGGAAUUCUGUUGCAUAUCUC | 0.18
4 | UAACAGGGGGCCACAGCAGAAGCGUACACGUCGCAGCCCCUGUCAGAUUCUGGUGAGUCUGCGAACUCUGCUGUAUACCUC | 0.13
5 | UAACAGGGGGCCACAGCAGAAGCGUACACGUCGCAGCCCCUGUCAGAUUCUGGUGAGUCUGCGAAUCCUGCUGUAUAUCUC | 0.47
6 | UAACAGGGGGCCACAGCAGAAGCGUACACGUCGCAGCCCCUGUCAGAUUCUGGUGAGUCUGCGAAUUCAGCUGUAUAUCUC | 0.37
7 | UAACAGGGGGCCACAGCAGAAGCGUACACGUCGCAGCCCCUGUCAGAUUCUGGUGAGUCUGCGAAUUCCGCUGAAUAUCCC | 0.54
8 | UAACAGGGGGCCACAGCAGAAGCGUACACGUCGCAGCCCCUGUCAGAUUCUGGUGAGUCUGCGAAUUCUGCUGUAAAUCUC | 0.57
9 | UAACAGGGGGCCACAGCAGAAGCGUACACGUCGCAGCCCCUGUCAGAUUCUGGUGAAUCUGCGGAUUCUGCAGUAUAUCUC | 0.34
10 | UAACAGGGGGCCACAGCAGAAGCGUACACGUCGCAGCCCCUGUCAGAUUCUGGUGAAUCUGCGAGUUCUGCUGUAUACCUC | 0.25
11 | UAACAGGGGGCCACAGCAGAAGCGUAUACGUCGCAGCCCCUGUCAGAUCCUGGUGAAUCUGCGAGUUCUGCUGUAUAUCUC | 0.12
12 | UAACAGGGGGCCACAGCAGAAGCGUACAAGUCGCAGCCCCUGUCAGAUUCUGGUGGAUCUGCGAAUUCUGCUGUACAUCUC | 0.28
13 | UAACAGGGGGCCACAGCAGAAGCGUACAUGUCGCAGCCCCUGACAGAUUCUGGUGAAUCUGCUGAUUCUGCUGUAGUUCUC | 0.1
14 | UAACAGGGGGCCACAGCAGAAGCGUACACGUGGCAGCCCCUGUCAGAUUCUGGUGAAUCUGCGAAUUCCGCUGUAUAUCUC | 0.09
15 | UAACAGGGGGCCACAGCAGAAGCGUACACGUCGUAGCCCCUGUCAGAUUCUGGUGGAUCUGCGAAUUCUGCUGUAUAUCUC | 0.16
16 | UAACAGGGGGCCACAGCAGAAGCGUACACGUCGCAGCACAUGUCAGAUUCUGGUGGAUCUGCGAAUUCUGCUGUAUAUCUC | 0.1
17 | UAACAGGGGGCCACAGCAGAAGCGUACACGUCGCAGCUCCUGUCAGAUUUUGGUGAAUCUGCGAAUUCUGCUGUAUAUCUC | 0.3

Row | Variant | self-cleavage
18 | UAACAGGGGGCCACAGCAGAAGCGUACACGUCGCAGCUCCUGUCAGAUCCCGGUGGAUCUGCGAAUUCUGCUGUAUACCUC | 0.13
19 | UAACAGGGGGCCACAGCAGAAGCGUACACGUCGCAGCCGCUGUCGGAUUCUGGUGAAUCUGCGAAUUCUGCCGUAUAUCUC | 0.05
20 | UAACAGGGGGCCACAGCAGAAGCGUACACGUCGCAGCCCUUGUCAGGUUCUGGUGAGUCUACGAAUUCUGCUGUAUACCUC | 0.05
21 | UAACAGGGGGCCACAGCAGAAGCGUACACGUCGCAGCCCUUGUCAGAUCCUGGUCAAUCUGCGAAUUCUGCUGUAGAUCCC | 0.06
22 | UAACAGGGGGCCACAGCAGAAGCGUACACGUCGCAGCCCCUGUGAGAUUCUGGUGAAUCUGCGAAUUCUGCUGUAUAUCCC | 0.9
23 | UAACAGGGGGCCACAGCAGAAGCGUACACAUCGCAGCCCCUGUCUGACUCUGGUGAAUCUGCGAAUUCCGCCGUAUAUCUC | 0.08
24 | UAACAGGGGGCCACAGCAGAAGCGUACACAUCGCAGCCCCUGUCAGAUUCUGGCGAAUCUGCGAAUUCUGCUGUAUAUCUC | 0.17
25 | UAACAGGGGGCCACAGCAGAAGCGUACACGUCACAGCUCCUGUCAGAUUCUGGUGAAUCUGCGAAUUCUGCUGUAUAUCUC | 0.18
26 | UAACAGGGGGCCACAGCAGAAGCGUACACGUCACAGCCCCUGUAAGAUUCUGGUGAAUCUGCGAAUUCUGCUGUAUAACUC | 0.19
27 | UAACAGGGGGCCACAGCAGAAGCGUACACGUCACAGCCCCUGUCAGACUCUGGUGAAUCUGCGCAUUCUGCUGUAUACCUC | 0.09
28 | UAACAGGGGGCCACAGCAGAAGCGUACACGUCACAGCCCCUGUCAGAUUCCGGUGAAUCUGCGAACUCUGCUGUAUAUCUC | 0.05
29 | UAACAGGGGGCCACAGCAGAAGCGUACACGUCUCAGCCCCUGUCAGAUUCUGGUGCAUCUGCGAAUUCUGCUGUAUAUCUC | 0.11
30 | UAACAGGGGGCCACAGCAGAAGCGUACACGUCGCAGCCCCUUUCAGAUUCUGGUGAAUCUGCGAAGUCUGCUGUAUAUCUC | 0.24
31 | UAACAGGGGGCCACAGCAGAAGCGUACACGUCGCAGCCCCUGUCAGAUUCUGGUAAAUCUGCGAAUUCUGCUGUACAUCUC | 0.93
32 | UAACAGGGGGCCACAGCAGAAGCGUACACGUCGCAGCCCCUGUCAGAUUCUGGUUAAUCCGCGAAUUCUGCUGUAUAUCUC | 0.22
33 | UAACAGGGGGCCACAGCAGAAGCGUACACGUCGCAGCCCCUGUCAGAUUCUGGUGAAUCUGCAAGUUCUGCUGUAUAUCUC | 0.51
34 | UAACAGGGGGCCACAGCAGAAGCGUACACGUCGCAGCCCCUGUCAGAUUCUGGUGAAUCUGCGAAUUCUGCUAUAUACCUC | 0.95
